According to PubChem BioAssay AID1508624 (National Center for Advancing Translational Sciences (NCATS), 2021):
Among all 48,000 compounds or so, about 120 (0.25%) were called active. Another 4% or so got no clear call; they are omitted. The call rests on the fitted dose curve; in most records, active means well fitted activation curve with a large enough effect; inconclusive means small, poorly fitted or top-dose-only effect, or another doubt; inactive means no such curve, though single readings can be large or run the other way. Some of the results follow.

experiment: Primary qHTS for Identification of Small Molecule Activators of Huntingtin-Antisense Promoter Activity; conditions: HEK293 HTT-AS promoter firefly luciferase reporter, 24 h; series mostly up to 57.5 µM; activity change, positive = activation: at the top concentration; further: nearly all actives have a fitted effect of over 55% in size
Summary of the method: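 HEK293 luciferase promoter-reporter cells (2,500/well) plated 24 h, then compounds added at up to 57.5 uM final for 24 h at 37 °C. Firefly luminescence by Dual-Glo, normalized to vehicle (0%) and zero RLU (-100%).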

Activity change, positive = activation, inactive:
CC(C)(C)OC(=O)N1CCC(c2c(C(=O)NCCN3CCOCC3)cnn2-c2cccc(Cl)c2)CC1 -8.42%, CCOc1ccc(S(=O)(=O)N2CCC(c3ccncc3)CC2)cc1 -19.2%, COc1cccc(NC(=O)c2oc3ccc(S(=O)(=O)N4CCCCCC4)cc3c2C)c1 -16.2%, CCOC(=O)C(C)Sc1nc(-c2ccccc2)ccc1C#N (stereo unspecified) -31.2%, Cc1ccc(NC(=O)c2ccc3snnc3c2)cc1C 15.3%, CCC(C)NC(=O)c1c(C)oc2nc(C)nc(N3CCOCC3)c12 (stereo unspecified) -0.78%, COc1ccccc1NC(=O)C1CCCN(c2ncnc3onc(-c4ccc(F)cc4)c23)C1 (stereo unspecified) -15.9%, COC(=O)c1ccccc1NC(=O)c1nn(-c2ccc(OC)cc2)c(=O)c2c1c1ccccc1n2C -9.24%, COc1cccc(NC(=O)C2CCN(S(=O)(=O)c3ccc4[nH]c5c(c4c3)CCCCC5)CC2)c1 -33%, COc1ccc(-c2cc(C(=O)NCCc3ccc(OC)c(OC)c3)c3c(-c4ccc(F)cc4)[nH]nc3n2)cc1 0%, CCOC(=O)c1ccc(NC(=O)Cn2c3ncccc3c(=O)n2-c2ccc(C)c(C)c2)cc1 -27.7%, Cc1cc(C)n(-c2nc(C)c(C)c(=O)n2CC(=O)Nc2cccc([N+](=O)[O-])c2)n1 -7.19%, COc1ccc(OC)c(NC(=O)N2CC3CCCN3c3ccccc32)c1 (stereo unspecified) -28.8%, CN[C@H](CC(C)C)C(=O)N[C@H]1C(=O)N[C@@H](CC(N)=O)C(=O)N[C@@H]2C(=O)N[C@H]3C(=O)N[C@H](C(=O)N[C@H](C(=O)O)c4cc(O)cc(O)c4-c4cc3ccc4O)[C@H](O)c3ccc(c(Cl)c3)Oc3cc2cc(c3O[C@@H]2O[C@H](CO)[C@@H](O)[C@H](O)[C@@H]2O[C@H]2C[C@](C)(N)[C@H](O)[C@H](C)O2)Oc2ccc(cc2Cl)[C@H]1O 3.92%, CC(=O)c1ccc(NC(=O)CC2Oc3ccc(C)cc3NC2=O)cc1 (stereo unspecified) -19.2%, CCOC(=O)Cc1c(C(=O)OCC)nnc2c(-c3ccccc3)c(C)nn12 -4.41%, CCOC(=O)c1cccc(NC(=O)N2CC=C(c3c[nH]c4ccccc34)CC2)c1 -18.2%, COc1cccc(N2CCN(c3ncnc4c3c(-c3ccccc3)cn4-c3cccc(C(F)(F)F)c3)CC2)c1 -18.3%, CCN(CC)C(=O)Cn1c(=O)n(CCc2ccccc2)c(=O)c2ccccc21 -12.5%, CCCNC(=O)N1[C@H](c2cccs2)[C@@H](C)C(=O)[C@@H](C)[C@@H]1c1cccs1 -10.4%, Cc1cc(Nc2ccc(Br)c(C)c2)n2nc(-c3ccco3)nc2n1 -26.6%, O=C(O)c1c(Cl)c(Cl)c(Cl)c(Cl)c1-c1c2cc(I)c(=O)c(I)c-2oc2c(I)c(O)c(I)cc12 -46%, COc1ccc(S(=O)(=O)NCC(c2ccc(N(C)C)cc2)N2CCc3ccccc32)cc1F (stereo unspecified) -30.4%, Cc1cc(C)n2nc(CNS(=O)(=O)c3ccccc3)nc2n1 -6.44%, CCOC(=O)c1ccccc1NC(=O)COC(=O)CC(C)(C)CC1=NS(=O)(=O)c2ccccc2N1 -52.9%, Cc1cccc(Nc2nnc(-c3ccc(C)c(S(=O)(=O)N4CCN(C)CC4)c3)c3ccccc23)c1 -35.7%, Cc1nn2c(=O)cc(COC(=O)c3cccc(NC(=O)c4ccc(F)cc4)c3)nc2s1 -43.5%, Cc1ccc(Cl)cc1NC(=O)Cn1c(=O)n(C(C)C)c(=O)c2oc3ccccc3c21 -6.62%, Cc1cccc(C(C)C)c1NC(=O)c1ccc2c(c1)CCN2S(C)(=O)=O -11.4%, CCn1c(CN2CCC(C)CC2)nc2cc(NC(=O)c3ccc([N+](=O)[O-])cc3)ccc21 -24.9%, CC(C)CCNC(=O)C(=O)Nc1c2c(nn1-c1ccc(Cl)cc1)CSC2 -0.922%, Cc1ccc(-n2nc(-c3ccccc3)c3cnc4cc5c(cc4c32)OCO5)cc1C -7.71%, CC(=O)Nc1cccc(NC(=O)CSc2ccc(-c3sc(-c4ccccc4)nc3C)nn2)c1 -4.26%, O=C(O)CCc1ccc(-c2ccccc2)n1-c1ccc(C(=O)O)cc1 -13.5%, Cc1cccc(NC(=O)N2CCC(CN3CCCCCC3)CC2)c1C -0.211%, CC1CCN(S(=O)(=O)c2ccc3c(c2)CCN3C(=O)Nc2ccc(Br)cc2F)CC1 -1.6%, CCOc1ccccc1C(=O)N1CCC(c2nc3ccccc3o2)CC1 -34.3%, Cc1nc(SCC(=O)Nc2ccc(C(=O)O)cc2)n[nH]1 -6.31%, COc1ccc(OC)c(NC(=O)CC(=O)Nc2ccc3nc4n(c(=O)c3c2)CCCCC4)c1 -16.1%, CCc1ccccc1NC(=O)Cn1nc(N2CCN(c3ccccc3OC)CC2)ccc1=O -17.4%, O=C1c2ccccc2S(=O)(=O)N1CCCCN1CCN(c2ncccn2)CC1 -4.09%, CN(C)CCCO[C@@H]1[C@H]2OC(C)(C)O[C@H]2O[C@@H]1C(O)CO (stereo partly specified) -0.253%, CCOc1ccc(N(CC)S(=O)(=O)N2CCCC(C(=O)Nc3ccc(OC)c(Cl)c3)C2)cc1 (stereo unspecified) -29.1%, Cc1cccc(NC(=O)CN2C(=O)CSc3ccc(S(=O)(=O)N4CCCC4)cc32)c1C -14%, COc1cccc(NC(=O)CSc2c3c(nc4ccccc24)CCCC3)c1 2.89%, O=C(Nc1ccccc1C(F)(F)F)N1CC=C(c2c[nH]c3ccccc23)CC1 -12%, COC(=O)CC(=O)CSc1nc2cc(C(=O)NCC(C)C)ccc2c(=O)n1CCc1ccccc1 -2.79%, COc1ccc(-c2onc(C)c2C)cc1S(=O)(=O)N1CCN(c2cc(C)ccc2C)CC1 -8.75%, Cc1c(Cl)ccc2sc(N3CCN(C(=O)C4CC4)CC3)nc12 -4.18%, COc1ccc(-c2cc3nc(C)c(CCC(=O)NC(C)c4ccccc4)c(C)n3n2)c(OC)c1 (stereo unspecified) -18.9%, Cc1nn(C(=O)c2cccc([N+](=O)[O-])c2C)c(C)c1S(=O)(=O)N1CCCCCC1 -2.89%, Cn1cc(S(=O)(=O)c2cccc(Cl)c2)c(=O)c2cc(F)c(N3CCCCC3)cc21 -15%, O=C(NCCc1ccc(Cl)cc1)c1ccc(CSCc2cccc(Cl)c2)o1 -9.54%, Cc1ccc(Cl)cc1NC(=O)c1oc2ccc(S(=O)(=O)N3CCCCCC3)cc2c1C 19.2%, Cc1cc(C)cc(OCC(=O)N2CCC(c3nc4ccccc4s3)CC2)c1 -9.54% [at 11.5 µM, percent change from vehicle, -100% = no light], CCc1cccc(C)c1NC(=O)CSc1nc2c(c(=O)[nH]1)CCC2 -22.2%, NC(=O)CSc1nc2ccc(NC(=O)COc3ccccc3Cl)cc2s1 -15.1%, Cn1c([N+](=O)[O-])cnc1COC(N)=O -6.87%, CS(=O)(=O)N(Cc1ccccc1)c1ccc(C(=O)Nc2ccc(Cl)cc2)cc1 -53.3%, Cc1cccc(-n2nc(C)c(C(=O)N3CCN(c4ccccc4)CC3)c2-n2cccc2)c1 -24.5%, Cc1cc(F)ccc1NC(=O)CCn1nc(C)c(S(=O)(=O)N2CCCCC2)c1C -25.3%, COc1ccccc1C(=O)Nc1ccc(S(=O)(=O)Nc2ncccn2)cc1 -3.83%, Cc1ccc(C)c(N2CCN(C(=O)C(CC(C)C)NS(=O)(=O)c3ccc4nc(C)sc4c3)CC2)c1 (stereo unspecified) -25.7%, CCOc1ccc(-c2cc(C(=O)NCCc3ccc(OC)c(OC)c3)c3c(-c4ccc(F)cc4)[nH]nc3n2)cc1 -55.3%, COc1cccc(-c2nc(SCC(=O)Nc3ccc4c(c3)OCCO4)c(-c3ccc(C)cc3)[nH]2)c1 -30%, COc1ccc(Cl)cc1NC(=O)c1cc(S(=O)(=O)N(C)Cc2ccccc2)ccc1F -2.77%, CCOC(=O)c1cnc2c(C)cccc2c1Nc1ccc(OC(C)C)cc1 -18.5%, Cc1ccc(C)c(N2CCN(c3nc4ccc(C(=O)c5ccccc5)cc4n4cnnc34)CC2)c1 -0.965%, CCOc1ccccc1OCCNC(C)Cc1ccc(OC)c(S(N)(=O)=O)c1 (stereo unspecified) -6.23%, Cc1cccc(OCCCn2c(CCNC(=O)C3CCCCC3)nc3ccccc32)c1 -32.1%, COc1ccccc1CN(Cc1c(Cl)cccc1Cl)S(=O)(=O)c1ccc(Br)cc1 2.23%, Cn1c(=O)[nH]c(=O)c2c1nc(CN1CCN(c3ccccc3F)CC1)n2Cc1ccc(F)cc1 -20.7%, COc1cc(C2Nc3ccccc3-c3nnc(SCc4ccc(C)cc4)nc3O2)cc(OC)c1O (stereo unspecified) -46.5%, CCc1nn(CC(=O)NCCCc2ccccc2)c(=O)c2cc3ccccc3n12 -6.36%, Cc1c(Cl)cccc1NC(=O)Cn1c(=O)n(Cc2nc(-c3ccccc3)no2)c(=O)c2cc3c(cc21)OCO3 -12.6%, CCCC(=O)Nc1cccc(-c2cn3c(C)csc3n2)c1 9.41%, Cc1c(Cl)cccc1NC(=O)C1CCN(c2nc3ccccc3[nH]2)CC1 -15.8%, Cc1ccc(Nc2cc(C)c(C#N)c3nc4ccccc4n23)c(C)c1 -13.1%, COC(=O)c1sccc1S(=O)(=O)N(CC(=O)Nc1ccccc1)c1ccccc1 -7.09%, CCc1ccc(CNC(=O)c2cnc3c(C)cccn3c2=O)cc1 -3.93%, Cc1ccc2oc(=O)n(CCNC(=O)Nc3ccc(Cl)cc3)c2c1 -18.5%, Cc1cc(C(=O)NCc2ccccc2Cl)c2c(C)nn(-c3cccc(F)c3)c2n1 -23.8%, O=C(NCC(c1ccco1)S(=O)(=O)c1cccs1)c1ccc(Cl)cc1 (stereo unspecified) 0.821%, CCCN(C(=O)Nc1cn(CC(C)C)c(=O)c2ccccc12)c1ccc(F)cc1 -25.4%, Cc1ccc(C(=O)Nc2ccc3oc(-c4ccccc4C)nc3c2)cc1 -3.92%, CCCCNC(=O)c1ccc2c(c1)NC(=O)C(CS(=O)(=O)Cc1ccc(C)cc1)N2 (stereo unspecified) -11.1%, CC(=O)N1CCc2c(sc3c2c(=O)n(-c2ccc(C)cc2)c(=O)n3Cc2ccccc2C)C1 -36.5%, CC(C)C(=O)OCc1cc(=O)n2nc(C3CC3)sc2n1 25.6%, Cc1cc(NC(=O)c2cccn2-c2nnc(N3CCCCC3)s2)ccc1Br -18.9%, Cc1cccc(C)c1NC(=O)CN1CCCCCC1 -1.49%, CCN1CCN(c2oc(/C=C/c3cc(OC)c(OC)c(OC)c3)nc2C#N)CC1 -16.5%
